PubChem BioAssay AID1347043 (National Center for Advancing Translational Sciences (NCATS), 2019)
In all, about 76,000 compounds went through this assay and about 1,900 (2.5%) were called active. The inconclusive results got no clear call from the source; some entries with a clear call stand among them for comparison. Calls follow the shape of the dose curve; as a rule, active = well fitted inhibition curve with a large enough effect; inconclusive = small, poorly fitted or top-dose-only effect; inactive = flat fitted curve, though single readings scatter. Where the call is inconclusive, the potency comes from a doubtful curve fit.

Target: Luciferin 4-monooxygenase (Photinus pyralis) (UniProt P08659)
Sequence of UniProt P08659 (P08659 whole entry, looked up): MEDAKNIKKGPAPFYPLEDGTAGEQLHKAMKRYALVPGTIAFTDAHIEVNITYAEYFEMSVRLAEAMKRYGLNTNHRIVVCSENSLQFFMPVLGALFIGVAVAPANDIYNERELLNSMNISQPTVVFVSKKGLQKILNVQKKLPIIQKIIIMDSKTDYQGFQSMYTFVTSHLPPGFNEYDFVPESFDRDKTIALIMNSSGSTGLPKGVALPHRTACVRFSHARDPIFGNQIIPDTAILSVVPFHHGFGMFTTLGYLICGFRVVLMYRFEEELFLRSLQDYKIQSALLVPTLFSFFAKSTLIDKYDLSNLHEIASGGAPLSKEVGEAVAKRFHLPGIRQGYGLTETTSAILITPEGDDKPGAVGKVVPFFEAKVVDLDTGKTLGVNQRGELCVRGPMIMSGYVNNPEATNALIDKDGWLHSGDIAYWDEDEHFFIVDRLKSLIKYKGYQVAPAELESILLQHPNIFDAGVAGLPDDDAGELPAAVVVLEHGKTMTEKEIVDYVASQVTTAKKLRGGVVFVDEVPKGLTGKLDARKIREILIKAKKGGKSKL
Assay: Firefly luciferase inhibition profiling of diverse chemical library using quantitative high-throughput screening; also: nearly all actives have a fitted effect of over 65% in size
Settings: purified P. pyralis luciferase, luminescence, biochemical; activity change, negative = inhibition: at 115 µM (top of the series) unless noted
In short: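 Cell-free enzyme assay, 10nM P. pyralis luciferase, luciferin and ATP each at 10uM. Inhibition profiled over a 6-point titration, read as luminescence.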
% is scaled to controls: 0 for no effect and ±100 for the full control effect; potency is read from the fitted curve at half-maximal effect; tags tell the direction and shape of the fitted curve.

| Structure (SMILES) | Potency | activity change, negative = inhibition |
| --- | --- | --- |
| O=C(Nc1ccc2c(c1)OCCO2)N1CC(c2nc(CCOCC3CC3)no2)C1 | active: 11.2 µM |  |
| Cc1ccc(NC(=O)N2CCCC(c3noc(COc4ccccc4)n3)C2)c(C)c1 (centres undefined) | inconclusive: 50.1 µM [inhibitor, partial curve, poor fit] |  |
| c1ccc(-c2noc(-c3cncnc3N3CCSCC3)n2)cc1 | inconclusive: 44.7 µM [inhibitor, partial curve] |  |
| CCN1c2cc(C(=O)Nc3ccccc3C(=O)OC)ccc2C(=O)N2CCCCCC21 (centres undefined) |  | inactive: -4.08% |
| O=C(NC1CCCN(c2cc(-c3ccccc3)[nH]n2)C1)c1ccc(Br)o1 (centres undefined) | inconclusive: 44.7 µM [inhibitor, partial curve] |  |
| Fc1cccc(Cc2noc(-c3nc(-c4ccccc4F)no3)n2)c1 | inconclusive: 22.4 µM [inhibitor, full curve] |  |
| CN(CCc1ccccn1)c1cc(C2CC(O)C2)ncn1 (centres undefined) | inconclusive: 44.7 µM [inhibitor, partial curve] |  |
| N#Cc1ccc(OCc2nc3c(n2Cc2ccccc2)C(=O)N(CC2CC2)CCN3)cc1 |  | inconclusive: -30.4% [inhibitor] [at 172 µM] |
| O=C1CCN(C(=O)c2cccc3[nH]ccc23)CCCC(C(=O)NCc2ccccc2)CCN1 (centres undefined) | inconclusive: 56.2 µM [inhibitor, partial curve] |  |
| Cc1ccc2c(C(=O)NCc3ccc(Cl)cc3Cl)cnn2c1 | inconclusive: 0.891 µM [inhibitor, full curve] |  |
| COc1ccc(N2CCN(c3nc(C(=O)NC4CC4)cs3)CC2)cc1 |  | inactive: -11.7% |
| O=C(CCn1cccn1)NC1CCCc2nc(-c3ccccc3)ncc21 (centres undefined) |  | inactive: -3.49% |
| CN1[C@@H](CCC(=O)N2CCC(O)CC2)CNC(=O)[C@@H]2[C@H]1CCN2Cc1ccc(O)cc1 |  | inactive: -6.52% [at 172 µM] |
| Cn1cnc(S(=O)(=O)N2CCC(N3CC(OCC4CC4)C34CCOCC4)CC2)c1 (centres undefined) |  | inactive: -5.66% |
| CC1(COc2cccnc2)COc2ccc(C(=O)NCCc3ccccc3)cc2N1 (centres undefined) | inconclusive: 56.2 µM [inhibitor, partial curve] |  |
| CC(Cn1cccn1)Nc1ccc(-c2nc(COc3ccccc3)no2)cn1 (centres undefined) | inconclusive: 39.8 µM [inhibitor, partial curve] |  |
| O=C(Nc1cccc(F)c1)N1C[C@@H]2C[C@H](C1)c1c(-c3cc4ccccc4s3)ccc(=O)n1C2 | inconclusive: 44.7 µM [inhibitor, partial curve] |  |
| CC(C)OC(=O)N1CCC(COc2cnc3c(ccn3CC(N)=O)c2)CC1 | inconclusive: 70.8 µM [inhibitor, partial curve] |  |
| CC1CCN(c2ncncc2-c2nc(-c3ccccc3)no2)CC1 | inconclusive: 39.8 µM [inhibitor, partial curve] |  |
